# Results reported in the supplement of paper PMC4967469.
# Compound: O=C1NC(=NCc2cccs2)S/C1=C\c1ccc2ncccc2c1 [RO-3306]
# Assay: Viability of human cancer cell lines after 72 h of drug (GDSC screen)
# Details: top dose 5 µM; top dose inferred
# Procedure: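 Human cancer cell lines in 384-well plates, medium with 10% serum, drug for 72 h over a 256-fold dose range (nine 2-fold or five 4-fold steps up to the top dose). Adherent lines were fixed and stained with the nucleic acid dye Syto60, suspension lines read with resazurin; signal relative to control wells, capped at 0 and 100%. One two-parameter sigmoid per drug and line, fitted in a mixed model over all curves with the slope shared within a line.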
cell line,measurement,value
"NCI-H1975 (lung adenocarcinoma, adherent)",AUC,0.925
same,pIC50,< 5.30
"NCI-H1993 (lung adenocarcinoma, adherent)",AUC,0.982
same,pIC50,< 5.30
"NCI-H2009 (lung adenocarcinoma, adherent)",AUC,0.927
same,pIC50,< 5.30
"NCI-H2023 (lung adenocarcinoma, adherent)",AUC,0.927
same,pIC50,< 5.30
"NCI-H2030 (lung adenocarcinoma, adherent)",AUC,0.974
same,pIC50,< 5.30
"NCI-H2052 (mesothelioma, adherent)",AUC,0.973
same,pIC50,< 5.30
"NCI-H2066 (small cell lung carcinoma, adherent)",AUC,0.953
same,pIC50,< 5.30
"NCI-H2081 (small cell lung carcinoma, suspension)",AUC,0.976
same,pIC50,< 5.30
"NCI-H2085 (lung adenocarcinoma, adherent)",AUC,0.821
same,pIC50,5.49
"NCI-H2087 (lung adenocarcinoma, semi-adherent)",AUC,0.92
same,pIC50,< 5.30
"NCI-H2110 (non-small cell lung carcinoma, adherent)",AUC,0.926
same,pIC50,< 5.30
"NCI-H2135 (non-small cell lung carcinoma, adherent)",AUC,0.991
same,pIC50,< 5.30
"NCI-H2141 (small cell lung carcinoma, suspension)",AUC,0.99
same,pIC50,< 5.30
"NCI-H2172 (non-small cell lung carcinoma, adherent)",AUC,0.982
same,pIC50,< 5.30
"NCI-H2227 (small cell lung carcinoma, semi-adherent)",AUC,0.984
same,pIC50,< 5.30
"NCI-H2291 (lung adenocarcinoma, adherent)",AUC,0.972
same,pIC50,< 5.30
"NCI-H2342 (lung adenocarcinoma, adherent)",AUC,0.986
same,pIC50,< 5.30
"NCI-H2347 (lung adenocarcinoma, adherent)",AUC,0.975
same,pIC50,< 5.30
"NCI-H2405 (lung adenocarcinoma, adherent)",AUC,0.853
same,pIC50,5.34
"NCI-H2444 (non-small cell lung carcinoma, adherent)",AUC,0.981
same,pIC50,< 5.30
"NCI-H2452 (mesothelioma, adherent)",AUC,0.969
same,pIC50,< 5.30
"NCI-H3122 (lung adenocarcinoma, adherent)",AUC,0.974
same,pIC50,< 5.30
"NCI-N87 (stomach, adherent)",AUC,0.961
same,pIC50,< 5.30
"NCI-SNU-1 (stomach, suspension)",AUC,0.972
same,pIC50,< 5.30
"NCI-SNU-5 (stomach, suspension)",AUC,0.982
same,pIC50,< 5.30
"NCI-SNU-16 (stomach, suspension)",AUC,0.988
same,pIC50,< 5.30
"NEC8 (testis, adherent)",AUC,0.857
same,pIC50,5.51
"NH-12 (neuroblastoma, adherent)",AUC,0.98
same,pIC50,< 5.30
"NKM-1 (acute myeloid leukaemia, suspension)",AUC,0.949
same,pIC50,< 5.30
"NMC-G1 (glioma, adherent)",AUC,0.982
same,pIC50,< 5.30
"NOMO-1 (acute myeloid leukaemia, suspension)",AUC,0.92
same,pIC50,< 5.30
"NOS-1 (osteosarcoma, adherent)",AUC,0.968
same,pIC50,< 5.30
"NU-DUL-1 (B-cell lymphoma, suspension)",AUC,0.98
same,pIC50,< 5.30
"NUGC-3 (stomach, adherent)",AUC,0.968
same,pIC50,< 5.30
"NUGC-4 (stomach, adherent)",AUC,0.971
same,pIC50,< 5.30
"NY (osteosarcoma, adherent)",AUC,0.846
same,pIC50,5.45
"OACM5-1 (oesophagus, semi-adherent)",AUC,0.986
same,pIC50,< 5.30
"OACp4C (oesophagus, adherent)",AUC,0.926
same,pIC50,< 5.30
"OAW-28 (ovary, adherent)",AUC,0.919
same,pIC50,< 5.30
"OAW-42 (ovary, adherent)",AUC,0.938
same,pIC50,< 5.30
"OC-314 (ovary, adherent)",AUC,0.991
same,pIC50,< 5.30
"OCI-AML2 (acute myeloid leukaemia, suspension)",AUC,0.995
same,pIC50,< 5.30
"OCI-AML3 (acute myeloid leukaemia, suspension)",AUC,0.989
same,pIC50,< 5.30
"OCI-AML5 (acute myeloid leukaemia, suspension)",AUC,0.989
same,pIC50,< 5.30
"OCI-LY7 (B-cell lymphoma, suspension)",AUC,0.881
same,pIC50,5.56
"OCI-LY-19 (B-cell lymphoma, suspension)",AUC,0.981
same,pIC50,< 5.30
"OCI-M1 (acute myeloid leukaemia, suspension)",AUC,0.994
same,pIC50,< 5.30
"OCUB-M (breast, adherent)",AUC,0.972
same,pIC50,< 5.30
"OCUM-1 (stomach, adherent)",AUC,0.904
same,pIC50,< 5.30
"OE19 (oesophagus, adherent)",AUC,0.982
same,pIC50,< 5.30
"OE21 (oesophagus, adherent)",AUC,0.862
same,pIC50,< 5.30
"OE33 (oesophagus, adherent)",AUC,0.984
same,pIC50,< 5.30
"OMC-1 (cervix, adherent)",AUC,0.946
same,pIC50,< 5.30
"ONS-76 (medulloblastoma, adherent)",AUC,0.931
same,pIC50,< 5.30
"OPM-2 (myeloma, suspension)",AUC,0.994
same,pIC50,< 5.30
"OS-RC-2 (kidney, adherent)",AUC,0.959
same,pIC50,< 5.30
"OSC-19 (head and neck, adherent)",AUC,0.943
same,pIC50,< 5.30
"OSC-20 (head and neck, adherent)",AUC,0.884
same,pIC50,< 5.30
"OV-7 (ovary, adherent)",AUC,0.969
same,pIC50,< 5.30
"OV-17R (ovary, adherent)",AUC,0.923
same,pIC50,< 5.30
"OV-56 (ovary, adherent)",AUC,0.981
same,pIC50,< 5.30
"OV-90 (ovary, adherent)",AUC,0.962
same,pIC50,< 5.30
"OVCA420 (ovary, adherent)",AUC,0.968
same,pIC50,< 5.30
"OVCA433 (ovary, adherent)",AUC,0.948
same,pIC50,< 5.30
"OVCAR-3 (ovary, adherent)",AUC,0.962
same,pIC50,< 5.30
"OVCAR-4 (ovary, adherent)",AUC,0.911
same,pIC50,< 5.30
"OVCAR-5 (ovary, adherent)",AUC,0.915
same,pIC50,< 5.30
"OVCAR-8 (ovary, adherent)",AUC,0.984
same,pIC50,< 5.30
"OVISE (ovary, adherent)",AUC,0.969
same,pIC50,< 5.30
"OVK-18 (ovary, adherent)",AUC,0.868
same,pIC50,< 5.30
"OVKATE (ovary, adherent)",AUC,0.969
same,pIC50,< 5.30
"OVMIU (ovary, adherent)",AUC,0.969
same,pIC50,< 5.30
"OVTOKO (ovary, adherent)",AUC,0.938
same,pIC50,< 5.30
"P12-ICHIKAWA (T-cell lymphoblastic leukaemia, suspension)",AUC,0.987
same,pIC50,< 5.30
"P30-OHK (lymphoblastic leukaemia, suspension)",AUC,0.99
same,pIC50,< 5.30
"P31-FUJ (acute myeloid leukaemia, suspension)",AUC,0.996
same,pIC50,< 5.30
"P32-ISH (Burkitt lymphoma, suspension)",AUC,0.993
same,pIC50,< 5.30
"PA-1 (ovary, adherent)",AUC,0.992
same,pIC50,< 5.30
"PA-TU-8902 (pancreas, adherent)",AUC,0.982
same,pIC50,< 5.30
"PANC-02-03 (pancreas, adherent)",AUC,0.941
same,pIC50,< 5.30
"PANC-03-27 (pancreas, adherent)",AUC,0.981
same,pIC50,< 5.30
"PANC-04-03 (pancreas, adherent)",AUC,0.972
same,pIC50,< 5.30
"PANC-10-05 (pancreas, adherent)",AUC,0.98
same,pIC50,< 5.30
"PC-3 (prostate, adherent)",AUC,0.888
same,pIC50,< 5.30
"PC-3 [JPC-3] (lung adenocarcinoma, adherent)",AUC,0.968
same,pIC50,< 5.30
"PC-14 (lung adenocarcinoma, adherent)",AUC,0.975
same,pIC50,< 5.30
"PCI-4B (head and neck, adherent)",AUC,0.881
same,pIC50,5.32
"PCI-6A (head and neck, adherent)",AUC,0.685
same,pIC50,5.99
"PCI-15A (head and neck, adherent)",AUC,0.965
same,pIC50,< 5.30
"PCI-30 (head and neck, adherent)",AUC,0.96
same,pIC50,< 5.30
"PE/CA-PJ15 (head and neck, adherent)",AUC,0.833
same,pIC50,5.44
"PEO1 (ovary, adherent)",AUC,0.924
same,pIC50,< 5.30
"PF-382 (T-cell lymphoblastic leukaemia, suspension)",AUC,0.986
same,pIC50,< 5.30
"PFSK-1 (medulloblastoma, adherent)",AUC,0.901
same,pIC50,< 5.30
"PL4 (pancreas, adherent)",AUC,0.976
same,pIC50,< 5.30
"PSN1 (pancreas, adherent)",AUC,0.865
same,pIC50,5.48
"PWR-1E (prostate, adherent)",AUC,0.9
same,pIC50,< 5.30
"QGP-1 (pancreas, adherent)",AUC,0.979
same,pIC50,< 5.30
"QIMR-WIL (acute myeloid leukaemia, suspension)",AUC,0.964
same,pIC50,< 5.30
"RC-K8 (B-cell lymphoma, suspension)",AUC,0.993
same,pIC50,< 5.30

# pIC50: −log10 of the molar value. By IC50 is meant the dose at which the fit gives 50% viability; a limit (>, <) means that the fit lies beyond the doses tested. The AUC spans the tested range (256-fold, ending at the top dose) of the same fit; values near 1 show little effect. A top dose marked as inferred is not printed in the source and was worked back from the curve model.
